Test results as given in paper PMC4336329 (PLoS ONE, 2015).
Out of some 310,000 compounds screened, about 14,000 (4.5%) showed an effect of 50% or more. Effects have a minus sign here. The list shows a part of the results.
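Further: peak tail current of the secondary pulse compared with the same well before compound.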

What follows are molecules tested against human ether-à-go-go-related gene (hERG) potassium channel (human, UniProt Q12809) (assay: primary screen, population patch clamp on CHO cells stably expressing hERG).
human ether-à-go-go-related gene (hERG) potassium channel, sequence (Q12809 whole entry, looked up): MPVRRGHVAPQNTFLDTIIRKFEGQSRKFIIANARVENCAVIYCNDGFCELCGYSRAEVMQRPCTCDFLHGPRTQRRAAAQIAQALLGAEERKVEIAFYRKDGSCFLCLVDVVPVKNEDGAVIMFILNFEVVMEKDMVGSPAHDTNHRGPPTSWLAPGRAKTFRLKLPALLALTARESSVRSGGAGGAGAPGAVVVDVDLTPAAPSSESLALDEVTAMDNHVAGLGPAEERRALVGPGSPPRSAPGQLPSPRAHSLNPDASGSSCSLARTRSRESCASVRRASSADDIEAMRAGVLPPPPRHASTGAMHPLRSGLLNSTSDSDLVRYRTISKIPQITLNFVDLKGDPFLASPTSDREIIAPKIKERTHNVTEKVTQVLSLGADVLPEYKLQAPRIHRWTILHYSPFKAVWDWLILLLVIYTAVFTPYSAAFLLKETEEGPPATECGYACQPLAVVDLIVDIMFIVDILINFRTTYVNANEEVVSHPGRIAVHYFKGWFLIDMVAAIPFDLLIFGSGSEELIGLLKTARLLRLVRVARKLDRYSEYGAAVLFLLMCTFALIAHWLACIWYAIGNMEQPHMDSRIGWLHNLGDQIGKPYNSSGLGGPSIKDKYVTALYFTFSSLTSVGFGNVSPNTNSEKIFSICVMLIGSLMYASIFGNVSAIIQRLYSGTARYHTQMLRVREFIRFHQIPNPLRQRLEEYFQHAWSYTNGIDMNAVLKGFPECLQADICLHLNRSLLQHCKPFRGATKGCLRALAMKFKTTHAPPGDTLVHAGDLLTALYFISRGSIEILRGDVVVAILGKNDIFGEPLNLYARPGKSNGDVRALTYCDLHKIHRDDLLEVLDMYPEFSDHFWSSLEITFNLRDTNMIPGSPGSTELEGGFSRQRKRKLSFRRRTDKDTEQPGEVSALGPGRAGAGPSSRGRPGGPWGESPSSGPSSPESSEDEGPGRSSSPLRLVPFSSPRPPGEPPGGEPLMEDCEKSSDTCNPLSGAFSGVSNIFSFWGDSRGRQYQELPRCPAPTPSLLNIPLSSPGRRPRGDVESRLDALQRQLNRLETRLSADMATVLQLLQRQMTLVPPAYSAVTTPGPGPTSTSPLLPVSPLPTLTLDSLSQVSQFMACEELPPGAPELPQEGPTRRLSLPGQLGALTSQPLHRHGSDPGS
For `Cc1ccc(NC(=O)C(=O)NCC2CCN(C(=O)c3cccc([N+](=O)[O-])c3)CC2)cc1`, the “hERG current change (%, negative = inhibition) at 10uM” value was -16.5%. `CCNS(=O)(=O)c1ccc(CCC(=O)N2CCCC2)cc1` was tested, and the “hERG current change (%, negative = inhibition) at 10uM” value was 6.37%. `COc1ccc(CNC(=O)C(c2ccco2)N(Cc2cccs2)C(=O)Cc2cccs2)cc1` (centres unmarked) was tested, and the “hERG current change (%, negative = inhibition) at 10uM” value was 10.6%. With `Cc1cc(C)nc(NNC2=CC(=[N+]3CCCC3)CCC2)n1.[I-]` the “hERG current change (%, negative = inhibition) at 10uM” value was -13.8%. For `CN1CCN(C(=O)c2cc3c(n(-c4ccccc4)c2=O)CC(C)(C)CC3=O)CC1`, the “hERG current change (%, negative = inhibition) at 10uM” value was 7.06%. For `COc1ccc(-c2cc(=[NH+]c3ccccc3)c3cc(C)ccc3o2)cc1.[O-][Cl+3]([O-])([O-])[O-]`, the “hERG current change (%, negative = inhibition) at 10uM” value was 24.8%. With `CSCCC(NC(=O)c1ccco1)C(=O)NC1CCCCCC1` (centres unmarked) the “hERG current change (%, negative = inhibition) at 10uM” value was 3.82%. `CCOC(=O)c1ccc(S(=O)(=O)N2CCN(C(=O)CSc3nc4ccccc4o3)CC2)cc1` was tested, and the “hERG current change (%, negative = inhibition) at 10uM” value was -27.6%. With `COc1ccc(C2C=C(c3cccs3)Nc3nc(CCCO)nn32)cc1` (centres unmarked) the “hERG current change (%, negative = inhibition) at 10uM” value was -57.9%. In the case of `Cc1c(C(=O)c2ccc(Cl)c([N+](=O)[O-])c2)c2ccccn2c1CCC#N`, the “hERG current change (%, negative = inhibition) at 10uM” value is reported as -17.9%. For `COc1ccc(/C=C(\C#N)C(=O)Nc2cccnc2)cc1`, the “hERG current change (%, negative = inhibition) at 10uM” value was 8.23%. For `O=c1[nH]nc(Cc2ccc(Cl)cc2)c2ccccc12`, the “hERG current change (%, negative = inhibition) at 10uM” value was 8.04%. For `Cc1ccccc1Nc1nc(-c2cccnc2)cs1`, the “hERG current change (%, negative = inhibition) at 10uM” value was -6.7%. For `COc1ccc(N(CC(=O)NC2CCCC2)C(=O)Cn2nnc(-c3ccc(F)cc3)n2)cc1`, the “hERG current change (%, negative = inhibition) at 10uM” value was -43.4%. In the case of `CC(=O)Oc1ccccc1C1=NN(C(C)=O)C(c2ccccc2)C1` (centres unmarked), the “hERG current change (%, negative = inhibition) at 10uM” value is reported as 17.5%. `O=C(N/N=C/c1ccncc1)NC12CC3CC(CC(C3)C1)C2` was tested, and the “hERG current change (%, negative = inhibition) at 10uM” value was -26.6%. In the case of `NC(=O)c1cc2ccccc2o/c1=N\NC(=O)c1ccc(F)cc1`, the “hERG current change (%, negative = inhibition) at 10uM” value is reported as -33.9%. With `CSc1ccc(CN(C)C(=O)c2cc(Cl)c3c(c2)OCCO3)cc1` the “hERG current change (%, negative = inhibition) at 10uM” value was -6.04%. With `COc1ccc(-c2nc(=S)c3c(n2CCN2CCOCC2)CC(C)(C)OC3)cc1` the “hERG current change (%, negative = inhibition) at 10uM” value was -1.05%. For `O=C(CCNC(=O)c1ccc([N+](=O)[O-])cc1)Nc1ccc(F)cc1`, the “hERG current change (%, negative = inhibition) at 10uM” value was -18.6%. For `O=C(NC(Cc1ccccc1)c1nc2ccccc2[nH]1)c1cccc([N+](=O)[O-])c1` (centres unmarked), the “hERG current change (%, negative = inhibition) at 10uM” value was 4.95%. For `Cc1ccc(CN2[C@@H](CC(C)C)COCCS2(=O)=O)cc1`, the “hERG current change (%, negative = inhibition) at 10uM” value was -2.46%. With `O=C(N/N=C/CCc1ccccc1)c1ccccc1` the “hERG current change (%, negative = inhibition) at 10uM” value was 0.383%. `CCC(Sc1nccn1C)C(=O)Nc1nnc(C)s1` (centres unmarked) was tested, and the “hERG current change (%, negative = inhibition) at 10uM” value was 3.31%. For `Cc1ccccc1C(=O)O/N=C(\N)Cc1cccs1`, the “hERG current change (%, negative = inhibition) at 10uM” value was 15.7%. `COc1ccc(CN2CCNC(=O)C2CC(=O)NCCCn2cccn2)c(OC)c1` (centres unmarked) was tested, and the “hERG current change (%, negative = inhibition) at 10uM” value was -37.4%. In the case of `CCCCOc1ccc(/C=C/C(=O)NCCc2nc3ccccc3[nH]2)cc1`, the “hERG current change (%, negative = inhibition) at 10uM” value is reported as -18%. `CSC1=NP(=S)(SC)N2CCCC2=C1C#N` (centres unmarked) was tested, and the “hERG current change (%, negative = inhibition) at 10uM” value was -1.65%. For `COc1ccc(CN(C)S(=O)(=O)c2nnc(NC(=O)c3ccc(C)cc3)s2)cc1OC`, the “hERG current change (%, negative = inhibition) at 10uM” value was 22.2%. With `CCc1ccc(NC2=NC(C(=O)c3ccccc3)CC(=O)N2)cc1` (centres unmarked) the “hERG current change (%, negative = inhibition) at 10uM” value was 1.94%. In the case of `Cc1ccc(NC(=O)c2cccc(NC3=NC4CS(=O)(=O)CC4S3)c2)cc1C` (centres unmarked), the “hERG current change (%, negative = inhibition) at 10uM” value is reported as -2.07%. `Cc1ccc2cc(/C=N/NC(=O)CN3CCOCC3)c(Cl)nc2c1` was tested, and the “hERG current change (%, negative = inhibition) at 10uM” value was -6.51%. For `CCCCn1nnc(NC(=O)c2sc3cc(Cl)ccc3c2Cl)n1`, the “hERG current change (%, negative = inhibition) at 10uM” value was 15.6%. In the case of `O=C(NCc1ccncc1)C(=O)NCC(c1ccco1)N1CCN(c2ccccc2F)CC1` (centres unmarked), the “hERG current change (%, negative = inhibition) at 10uM” value is reported as 6.13%. In the case of `CN(C)c1ccc(/C=C2\CCC/C(=C\c3ccccc3)C2=O)cc1`, the “hERG current change (%, negative = inhibition) at 10uM” value is reported as -3.43%. `CN(C)S(=O)(=O)c1ccc(NC(=O)CN2CCCCCC2)cc1` was tested, and the “hERG current change (%, negative = inhibition) at 10uM” value was 46.4%. For `CCOC(=O)N1CCN(C(=O)CSc2nc(=O)n3ccccc3n2)CC1`, the “hERG current change (%, negative = inhibition) at 10uM” value was 7.65%. For `Nc1cccc(-c2cn3cc(C(F)(F)F)cc(Cl)c3n2)c1`, the “hERG current change (%, negative = inhibition) at 10uM” value was -1.24%. With `COCCN(C(=O)CSc1nnc(-c2ccc(C(C)(C)C)cc2)n1N)c1c(N)n(CC(C)C)c(=O)[nH]c1=O` the “hERG current change (%, negative = inhibition) at 10uM” value was 14.9%. With `CCC1CCCCN1CCCNC(=O)C1CCCN(c2nn3c(=O)cc(C)nc3s2)C1` (centres unmarked) the “hERG current change (%, negative = inhibition) at 10uM” value was 12.2%. With `COc1ccc(C(=O)N2CCCN(C)CC2)cc1S(=O)(=O)N1CCCc2ccccc21` the “hERG current change (%, negative = inhibition) at 10uM” value was -23.4%. With `COC(=O)c1c(-c2ccc(SC)cc2)sc2ccccc12` the “hERG current change (%, negative = inhibition) at 10uM” value was 15.4%. `CCOC(=O)C1(CCOc2ccccc2)CCN(Cc2ccc(-n3cccn3)cc2)CC1` was tested, and the “hERG current change (%, negative = inhibition) at 10uM” value was -84.1%. With `N#C/C(=C\c1ccccc1C(F)(F)F)C(=O)Nc1ccccc1F` the “hERG current change (%, negative = inhibition) at 10uM” value was -3.1%.
